This passage reports 100 nM FACS (MFI Ratio) results from patent US20230265179A1.

Substitutions are numbered along the chain they refer to.

B1: CD40L-368 (antibody, V domains shown)
VH: [about 100 residues not written out]ERGDYYYYGMDVWGQGTLVTVSS
VL: DIQMTQSPSSLSASVGDRVTITCRASQSIGTFLNWYQQKPGKAPKLLIYGTSNLQSGVPSRFSGSGSGTDFTLTISSLQPEDFATYYCQQGYRTPLTFGGGTKVEIK
B2: CD40L-405 (antibody, V domains shown)
VH: [about 100 residues not written out]ERGDYYYYGMDVWGQGTLVTVSS
VL: B1 VL with S14Y, T31I, F32H, T51A, N53R, S56T, G91S, R93S, T94A
B3: CD40L-422 (antibody, V domains shown)
VH: [about 100 residues not written out]ERGDYYYYGMDVWGQGTLVTVSS
VL: B1 VL with I29V, G30S, T31R, G50A, T51A, N53T, S56P, G91S, R93E

For the assay, the target named is CD40L (UniProt P29965). As to the kind of experiment: flow cytometry, 100 nM IgG, CD40L over-expressing Expi293 cells over parent Expi293 cells.
Chain of UniProt P29965 (P29965 whole entry): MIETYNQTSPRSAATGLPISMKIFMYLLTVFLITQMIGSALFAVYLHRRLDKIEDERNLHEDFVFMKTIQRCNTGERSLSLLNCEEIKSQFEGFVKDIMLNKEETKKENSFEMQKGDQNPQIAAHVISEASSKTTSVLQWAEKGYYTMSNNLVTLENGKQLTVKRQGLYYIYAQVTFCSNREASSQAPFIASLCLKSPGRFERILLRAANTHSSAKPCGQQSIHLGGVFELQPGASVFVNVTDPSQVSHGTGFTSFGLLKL
As to B1, the 100 nM FACS (MFI Ratio) was 1.9 MFI ratio.

On to B2, for which the 100 nM FACS (MFI Ratio) is 1.8 MFI ratio.

Turning to B3, the 100 nM FACS (MFI Ratio) amounted to 1.8 MFI ratio.
